In PubChem BioAssay AID485294 (National Center for Advancing Translational Sciences (NCATS), 2010):
Screen size: about 370,000 compounds; about 150 (0.041%) were called active. The inconclusive results got no clear call from the source; some entries with a clear call stand among them for comparison. Calls follow the shape of the dose curve; as a rule, active = well fitted inhibition curve with a large enough effect; inconclusive = small, poorly fitted or top-dose-only effect; inactive = flat fitted curve, though single readings scatter. No potency is given beside an inconclusive call; the fits are too rough. Square brackets hold non-standard residues; d marks the D form. Peptide text beside a SMILES is read from it. * marks the point of attachment. ξ: configuration not given here. Cbz = O=C(OCc1ccccc1)*; ξA = CC(N)C(=O)O

The compounds below were run against Beta-lactamase (Escherichia coli (strain K12)) (UniProt P00811) (assay: qHTS Inhibitors of AmpC Beta-Lactamase (assay with detergent)). Conditions: AmpC hydrolysis of nitrocefin, absorbance 480 nm, 0.01% Triton; series mostly up to 114 µM.
UniProt P00811, sequence (P00811 whole entry, looked up): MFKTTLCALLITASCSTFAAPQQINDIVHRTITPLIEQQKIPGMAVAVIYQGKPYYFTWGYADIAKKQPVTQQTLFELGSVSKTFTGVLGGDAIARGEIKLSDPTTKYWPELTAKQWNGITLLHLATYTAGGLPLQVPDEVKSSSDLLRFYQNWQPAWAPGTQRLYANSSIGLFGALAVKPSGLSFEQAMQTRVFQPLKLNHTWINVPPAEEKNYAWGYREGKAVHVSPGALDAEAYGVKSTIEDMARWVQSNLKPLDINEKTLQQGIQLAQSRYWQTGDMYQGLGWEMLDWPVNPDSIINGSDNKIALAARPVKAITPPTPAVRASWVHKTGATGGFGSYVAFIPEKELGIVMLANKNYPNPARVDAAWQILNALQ
Outline: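 AmpC (5.3 nM in the dispensed reagent) in 20 mM phosphate pH 7.0 with 0.01% (detergent screen) or 0.0001% Triton X-100 was preincubated with compounds for 15 min at room temperature. Nitrocefin was then added from an 800 uM solution, and hydrolysis was followed at 480 nm.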
Also: nearly all actives have a fitted effect of over 25% in size.
Potency is read from the fitted curve at half-maximal effect; tags tell the direction and shape of the fitted curve.

| Structure (SMILES) | Potency |
| --- | --- |
| O=C(COc1ncnc2ccc(Br)cc12)Nc1ccc(N2CCOCC2)cc1 | inconclusive [inhibitor, partial curve, poor fit] |
| O=C1c2ccccc2C(=O)N1CCC(O)C[N+](=O)[O-] (centres undefined) | inconclusive [inhibitor, full curve, poor fit] |
| C=CCSc1cc(C)nc2c(-c3ccccc3)c(C)nn12 | inactive |
| Cc1cc(C)c2[nH]c(=O)c(CN(C(=O)C3CCCO3)C3CCCC3)cc2c1 (centres undefined) | inconclusive [inhibitor, full curve] |
| OCCN(Cc1ccccc1)Cc1ccccc1O | inconclusive [inhibitor, single point] |
| Cc1ccc2cc3cc(C(=O)N4CCN(c5ccc(Cl)cc5)CC4)oc3nc2c1 | inactive |
| Cc1csc(SCC(=O)NC(=O)C2CCCCC2)n1 | inconclusive [inhibitor, full curve, poor fit] |
| COc1cc2[nH]c(C(=O)NCC3CCCO3)cc2c(OC)c1OC (centres undefined) | inconclusive [inhibitor, partial curve] |
| Cn1c(=O)c([N+](=O)[O-])c(Cl)c2ccccc21 | inconclusive [inhibitor, single point] |
| CCS(=O)(=O)N1CCN(c2ccc([N+](=O)[O-])c(N3CCOCC3)c2)CC1 | inactive |
| CN(C(=O)COC(=O)c1ccccc1Cc1ccccc1)c1c(N)n(Cc2ccccc2)c(=O)[nH]c1=O | inconclusive [inhibitor, full curve] |
| Cc1nc2ccc(NC(=O)c3cnc(Cl)c(Cl)c3)cc2s1 | inactive |
| COc1ccc(Cl)cc1NC(=O)NCCn1c(=O)oc2ccc(C)cc21 | inactive |
| CN(c1ccccc1)S(=O)(=O)c1ccc(C(=O)Nc2nnc(C3CC3)o2)cc1 | inactive |
| Cc1ccc(N2CC(C(=O)Nc3nc4ccc(S(C)(=O)=O)cc4s3)CC2=O)cc1 (centres undefined) | inconclusive [inhibitor, full curve] |
| C[C@](N)(CCP(=O)(O)O)C(=O)O | inconclusive [inhibitor, full curve, poor fit] |
| COc1ccc(NC(=O)C/C(C)=N/NC(=O)c2ccncc2)c([N+](=O)[O-])c1 | inactive |
| Cc1ccc(C)c(N2CCN(C(=O)c3cnn(C(C)(C)C)c3C3CCN(C(=O)OC(C)(C)C)CC3)CC2)c1 | inactive |
| COc1ccccc1C1C2=C(CC(C)(C)CC2=O)N(CC(=O)O)C2=C1C(=O)CC(C)(C)C2 | inconclusive [inhibitor, partial curve, poor fit] |
| O=C(CCCC(=O)NCC1CCCO1)NCC1CCCO1 (centres undefined) | inconclusive [inhibitor, full curve] |
| COc1cc(C2CC(=O)N3CN(Cc4ccco4)CSC3=C2C#N)ccc1OCc1ccccc1 (centres undefined) | inconclusive [inhibitor, full curve] |
| CNC(=O)/C(C#N)=C/c1ccc(OCCOc2ccccc2)cc1 | inconclusive [inhibitor, partial curve, poor fit] |

| Structure (SMILES) | Potency |
| --- | --- |
| CC1CCc2nc3ccc(S(=O)(=O)N4CCC(C(=O)N5CCCCC5)CC4)cc3c(C(=O)O)c2C1 (centres undefined) | inconclusive [inhibitor, full curve, poor fit] |
| COc1ccc(C(=O)Nc2ccc3nc4c(c(Nc5ccc(OC)c(OC)c5)c3c2)CCCC4)c(OC)c1 | inactive |
| CC(=O)Nc1ccc(C(=O)CN2C(=O)CSC2=O)cc1 | inconclusive [inhibitor, partial curve, poor fit] |
| COc1ccc(NC(=O)c2c(SC)nsc2SC)cc1 | inconclusive [inhibitor, full curve, poor fit] |
| CCC1CN(C)C2Cc3c([nH]c4ccccc34)C(=O)CC1C2C(=O)OC (centres undefined) | inactive |
| COC(=O)c1ccccc1NC(=S)N(Cc1ccc2c(c1)OCO2)Cc1cc2cc(OC)ccc2[nH]c1=O | inconclusive [inhibitor, partial curve] |
| C=CCN1C(=O)/C(=C\c2ccc(N3CCOCC3)o2)C(=O)NC1=S | inconclusive [inhibitor, full curve, poor fit] |
| CCN1CCN(c2ccc(S(=O)(=O)N3CCCCC3)cc2NC(=O)COc2cc(C)ccc2Cl)CC1 | inconclusive [inhibitor, partial curve, poor fit] |
| Cc1ccc(C(=O)NC2CC(C)(C)NC(C)(C)C2)c(C)c1 | inconclusive [inhibitor, full curve, poor fit] |
| CCOc1ccc(OCC(=O)OCC(=O)NNC(=O)c2ccc([N+](=O)[O-])cc2)cc1 | inconclusive [inhibitor, partial curve] |
| CCOc1cc2[nH]c(=S)n(CCCN3CCCC3=O)c(=O)c2cc1OCC | inconclusive [inhibitor, full curve, poor fit] |
| O=C1CCCCC1Sc1nnc(-c2ccc3c(c2)OCO3)o1 (centres undefined) | inconclusive [inhibitor, full curve, poor fit] |
| COc1cccc(C2=CC(c3ccccc3F)n3ncc(C(=O)Nc4ccc(C)cc4)c3N2)c1 (centres undefined) | inactive |
| COc1ccc(/C=N/N2CCN(Cc3ccc(C)cc3)CC2)cc1Br | inconclusive [inhibitor, partial curve] |
| CCCCN(CCCC)CCCNC(=O)CN1C(=O)COc2ccc(S(=O)(=O)N3CCC(C)CC3)cc21 | inconclusive [inhibitor, full curve, poor fit] |
| CCCC(=O)N1N=C(c2ccccc2)CC1c1cn(C)c2ccccc12 (centres undefined) | inconclusive [inhibitor, full curve, poor fit] |
| CC1CCCCN1c1c(S(=O)(=O)c2ccc(Cl)cc2)cnc2ccccc12 (centres undefined) | inconclusive [inhibitor, single point] |
| Cc1ccc(CCNC(=O)c2sc3ncccc3c2-n2c(C)ccc2C)cc1 | inconclusive [inhibitor, full curve, poor fit] |
| Cc1ccc(NC(=O)CS(=O)CC(=O)NCCCc2ccccc2)cc1Cl (centres undefined) | inconclusive [inhibitor, partial curve, poor fit] |
| Nc1[nH]n2c(=O)cc(-c3ccccc3)nc2c1N=Nc1ccccc1 | inconclusive [inhibitor, partial curve, poor fit] |
| Cc1ccccc1NC(=O)COc1ccc2c(c1)OC(C)(C)CC2=O | inactive |
| COC(=O)CNC(=O)C(C)NC(=O)CNC(=O)OCc1ccccc1 (stereo not drawn) (Cbz-Gly-[ξA]-Gly-OMe) | inconclusive [inhibitor, single point] |

| Structure (SMILES) | Potency |
| --- | --- |
| CCOc1ccc2nc(NS(=O)(=O)Cc3ccccc3)sc2c1 | inconclusive [inhibitor, partial curve, poor fit] |
| CCn1cc(C(=O)NC(=S)Nc2cccc(O)c2)cn1 | inactive |
| O=C(CCC1CCCCC1)Nc1ncn[nH]1 | inconclusive [inhibitor, partial curve] |
| CC[N+](CC)(CC)CCC(O)(c1ccccc1)C1CCCCC1 (centres undefined) | inconclusive [inhibitor, full curve, poor fit] |
| Cc1ccc(Cl)cc1N1CCN(C(=O)CCSCc2ccccc2F)CC1 | inactive |
| O=C1C2CCCN2C(=S)N1C1CCCCC1 (centres undefined) | inconclusive [inhibitor, full curve, poor fit] |
| Cc1ccc(-n2nc(-c3ccc(F)cc3)c3cnc4cc5c(cc4c32)OCO5)cc1C | inconclusive [inhibitor, single point] |
| CC(C)(C)n1nnnc1C(c1ccc(Cl)cc1)N(Cc1cccnc1)Cc1ccco1 (centres undefined) | inconclusive [inhibitor, partial curve, poor fit] |
| COc1cc(OC)cc(C(=O)Nc2cccnc2)c1 | inconclusive [inhibitor, full curve, poor fit] |
| COc1ccc(S(=O)(=O)NCc2ccccn2)c(Cl)c1Cl | inconclusive [inhibitor, full curve, poor fit] |
| CCOC(=O)C1=C(c2ccccc2)NC(SCC(=O)Nc2cccc(C)c2)=C(C#N)C1c1ccco1 (centres undefined) | inactive |
| CCOc1ccc(N=Cc2c(O)cc(C)oc2=O)cc1 | inconclusive [inhibitor, full curve, poor fit] |
| O=C(CCCOc1ccccc1)Nc1ccc(S(=O)(=O)N2CCOCC2)cc1 | inactive |
| CC(C)CCn1cnc2c([nH]c3cccc(Cl)c32)c1=O | inconclusive [inhibitor, partial curve, poor fit] |
| CC(C)(C)NC(=O)C(c1ccccc1)N(Cc1ccco1)C(=O)c1csnn1 (centres undefined) | inconclusive [inhibitor, full curve] |
| O=C(CCCc1nc(-c2ccco2)no1)Nc1ccccc1[N+](=O)[O-] | inactive |
| COc1cc(/C=N/NC(=O)c2sc(N)c(C#N)c2C)cc(Br)c1O | inconclusive [inhibitor, single point] |
| CC(C)OCCCNC(=O)CCCC(=O)Nc1ccc(OCCc2ccccc2)cc1 | inconclusive [inhibitor, single point] |
| O=C(CNC(=O)c1ccc(N2C(=O)c3ccccc3C2=O)cc1)OCC(=O)c1ccc(Cl)cc1 | inconclusive [inhibitor, partial curve, poor fit] |
| CCOC(=O)/C(C#N)=C1\C=CN(C)C(C)=N1 | inconclusive [inhibitor, partial curve] |
